Assay results published in publication PMC4051706.
These are yes or no findings as the source states them, for the method shown. Binding seen in cells or lysates may run through a third protein. Some entries that bind do so weakly or less than the wild type.

T1: sorting nexin 31 (SNX31), mouse urothelium (mouse (endogenous in mouse urothelium)) (UniProt Q6P8Y7)
T1 sequence: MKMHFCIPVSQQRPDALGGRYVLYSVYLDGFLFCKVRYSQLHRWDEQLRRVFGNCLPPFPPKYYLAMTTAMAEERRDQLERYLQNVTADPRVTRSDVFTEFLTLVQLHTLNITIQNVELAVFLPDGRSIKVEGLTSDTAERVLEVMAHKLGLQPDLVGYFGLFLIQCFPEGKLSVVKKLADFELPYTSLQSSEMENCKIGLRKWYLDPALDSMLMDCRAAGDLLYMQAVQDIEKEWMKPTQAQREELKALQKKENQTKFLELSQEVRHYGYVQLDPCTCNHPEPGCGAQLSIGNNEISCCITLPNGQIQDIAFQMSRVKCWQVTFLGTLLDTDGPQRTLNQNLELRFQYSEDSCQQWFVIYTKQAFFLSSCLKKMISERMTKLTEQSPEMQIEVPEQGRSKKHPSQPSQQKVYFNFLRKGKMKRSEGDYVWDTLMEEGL

T2: uroplakin IIIa (UPIIIa), mouse urothelium (mouse (endogenous in mouse urothelium)) (UniProt Q9JKX8)
T2 sequence: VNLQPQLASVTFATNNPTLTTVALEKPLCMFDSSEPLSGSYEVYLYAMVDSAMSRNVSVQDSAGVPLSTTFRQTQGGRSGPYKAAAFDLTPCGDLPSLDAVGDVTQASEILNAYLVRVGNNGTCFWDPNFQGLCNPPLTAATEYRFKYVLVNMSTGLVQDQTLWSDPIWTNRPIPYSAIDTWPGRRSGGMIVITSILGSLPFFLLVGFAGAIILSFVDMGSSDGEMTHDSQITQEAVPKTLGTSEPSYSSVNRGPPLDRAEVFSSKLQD


Key:
[1] = target: T1, sorting nexin 31 (SNX31), mouse urothelium (mouse (endogenous in mouse urothelium)); assay: co-IP; affinity-purified anti-SNX31 antibody crosslinked to aminolink plus resin; 300 µg of total mouse urothelial proteins in RIPA buffer; quenched beads, control beads and anti-Gst beads as negative controls; 6 washes with cold lysis buffer; immunoblot
[2] = target: T2, uroplakin IIIa (UPIIIa), mouse urothelium (mouse (endogenous in mouse urothelium)); assay: proximity ligation; in situ PLA (Duolink) on paraffin sections of mouse bladder, wild type and Vps33a mutant (Buff); signals counted per umbrella cell
[3] = target: T1, sorting nexin 31 (SNX31), mouse urothelium (mouse (endogenous in mouse urothelium)); assay: as above

Row | binding [1] | binding [2] | binding [3] | Binder
1 | binds | binds |  | uroplakin Ib (UPIb), mouse urothelium (protein, UniProt Q9Z2C6 1-260) MAKDDSTVRCFQGLLIFGHVIVGMCGIALTAECIFFVSDQHSLYPLLEATNNDDIFGAAWIGMFVGICLFCLSVLAIVGIMKSNRKILLAYFIMMFIVYGFEVASCITAATQRDFFTTNLFLKQMLMRYQNNSPPTNDDEWKNNGVTKTWDRLMLQDHCCGVNGPSDWQKYTSAFRVENNDADYPWPRQCCVMDKLKEPLNLDACKLGVPGYYHSQGCYELISGPMDRHAWGVAWFGFAILCWTFWVLLGTMFYWSRIEY
2 | no binding |  |  | uroplakin Ia (UPIa), mouse urothelium (protein, UniProt Q9D132 1-257) MASAATEGEKGSPVVVGLLVVGNIIILLSGLALFAETVWVTADQYRVYPLMGVSGKDDVFAGAWIAIFCGFSFFVVASFGVGAALCRRRYMILTYLLLMLIVYIFECASCITSYTHRDYMVSNPSLITKQMLTYYSADTDQGQELTRLWDRIMIEQECCGTSGPMDWVNYTSAFRAATPEVVFPWPPLCCRRTGNFIPINEDGCRVGHMDYLFTKGCFEHIGHAIDSYTWGISWFGFAILMWTLPVMLIAMYFYTTL
3 | binds |  | binds | uroplakin IIIa (UPIIIa), mouse urothelium (protein, UniProt Q9JKX8 19-287) VNLQPQLASVTFATNNPTLTTVALEKPLCMFDSSEPLSGSYEVYLYAMVDSAMSRNVSVQDSAGVPLSTTFRQTQGGRSGPYKAAAFDLTPCGDLPSLDAVGDVTQASEILNAYLVRVGNNGTCFWDPNFQGLCNPPLTAATEYRFKYVLVNMSTGLVQDQTLWSDPIWTNRPIPYSAIDTWPGRRSGGMIVITSILGSLPFFLLVGFAGAIILSFVDMGSSDGEMTHDSQITQEAVPKTLGTSEPSYSSVNRGPPLDRAEVFSSKLQD
